Experimental findings from patent US20110217279A1 (UNIVERSITY OF ROCHESTER, published 2011) are described below.

The target of the experiment is T1, human PKC-δ (protein kinase C delta), wild type, expressed in HEK293A cells (human, UniProt Q05655).
T1 construct: Present in cell lysates (pull-down and co-immunoprecipitation); also called wt-PKC-δ; pcDNA3-PKC-δ
In words: GST pull-down from lysate of 293A cells overexpressing PKC-δ, blot with anti-PKC-δ. As for the experimental part:
GST-hBVR stably binds to PKC-δ as shown in the GST pull-down assay of FIG. 2A. Lysate (1 mg protein) prepared from 293A cells overexpressing PKC-δ was subjected to the GST-pull-down assay using GST-hBVR (10 μg/ml) or GST alone. At the indicated times, the GSH-agarose bound fraction was collected, washed, and separated on SDS-PAGE together with PKC-δ and GST-hBVR standards (ST). Proteins in the cell were transferred to a nitrocellulose membrane, which was probed sequentially with anti-PKC-δ, and anti-hBVR antibodies. hBVR and PKC-δ co-immunoprecipitate as shown in the immunoblot of FIG. 2B. HEK-293A cells were transfected with PKC-δ and HA-tagged hBVR, and starved and treated with PMA for 15 minutes. Cell lysates were immunoprecipitated with anti-HA antibodies and blotted onto nitrocellulose. […] The membrane was sequentially probed with anti-PKC-δ and anti-hBVR antibodies. The immunofluorescence cell images of FIG. 2C depict hBVR and PKC-δ co-localization. Cells co-expressing pEGFP-hBVR and pDs2-red-PKC-δ were grown in chamber slides. […]
Cell Culture, infection, transfection, GST pull-down and co-immunoprecipitation: HEK 293A cells were grown in Dulbecco's Modified Eagle Medium (Invitrogen) containing 10% fetal bovine serum and 1% penicillin-G/streptomycin for 24 h or until the cells reached 70% confluency. […] Western blotting determined overexpression of hBVR or PKC-δ. […]

T1 sequence (Q05655 whole entry, stated change not applied): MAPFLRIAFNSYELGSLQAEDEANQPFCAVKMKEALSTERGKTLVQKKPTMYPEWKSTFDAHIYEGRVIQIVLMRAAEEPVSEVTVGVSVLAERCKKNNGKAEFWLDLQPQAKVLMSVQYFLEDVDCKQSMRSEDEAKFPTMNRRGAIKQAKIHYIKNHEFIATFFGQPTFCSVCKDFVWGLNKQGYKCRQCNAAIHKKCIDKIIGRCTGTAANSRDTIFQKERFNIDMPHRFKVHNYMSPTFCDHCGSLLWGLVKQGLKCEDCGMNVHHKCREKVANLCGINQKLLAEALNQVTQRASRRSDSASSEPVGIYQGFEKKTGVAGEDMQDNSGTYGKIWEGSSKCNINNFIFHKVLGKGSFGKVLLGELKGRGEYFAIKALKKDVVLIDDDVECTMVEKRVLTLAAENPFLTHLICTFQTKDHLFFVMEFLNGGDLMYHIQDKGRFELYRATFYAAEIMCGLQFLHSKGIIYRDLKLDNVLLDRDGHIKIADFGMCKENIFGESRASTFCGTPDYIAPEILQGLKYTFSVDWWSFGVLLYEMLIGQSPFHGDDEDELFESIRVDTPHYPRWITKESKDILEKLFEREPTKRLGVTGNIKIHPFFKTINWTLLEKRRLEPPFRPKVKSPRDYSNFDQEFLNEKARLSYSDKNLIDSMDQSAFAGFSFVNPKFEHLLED

B1: GST alone (other)
chain: not shown
notes: Negative control of the GST pull-down
On to B1, for which the binding result was “no binding (tested: 10 µg GST on GSH-agarose beads)”.
